Screen size: about 420,000 compounds; about 64,000 (15%) were called active. Inconclusive results, whose numbers are uncertain, are shown with a selection of clear calls. Calls come from the whole dose curve; as a rule, active = well fitted inhibition curve with a large enough effect; inconclusive = small, poorly fitted or top-dose-only effect; inactive = flat fitted curve, though single readings scatter. Potencies of inconclusive entries are left out as doubtful fits.
test: qHTS for Inhibitors of human tyrosyl-DNA phosphodiesterase 1 (TDP1): qHTS in cells in absence of CPT; conditions: DT40 Tdp1-/- hTDP1 cells, no CPT, ATP luminescence, 48 h; activity change, negative = growth inhibition: at 46.2 µM (top of the series) unless noted; note: nearly all actives have a fitted effect of over 55% in size
Summary of the method: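 Compound effects on proliferation are scored in DT40 Tdp1-/-;hTDP1 cells in the absence of CPT. ATP levels (CellTiter-Glo luminescence) are recorded after a ≥48 hr, 37 °C incubation.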
% is set by controls: 0 for no effect and ±100 for the full control effect; potency is the fitted concentration of half-maximal effect; tags give direction and shape of the fitted curve.

Row | Compound | Potency | activity change, negative = growth inhibition
1 | CCNc1nc(C)c(CN(C(C)=O)c2ccccc2)nc1C#N | inactive | 
2 | CC1=C(/C=C/C(C)=C/C=C/C(C)=C/C=C/C=C(C)/C=C/C=C(C)/C=C/C(=O)[C@]2(C)CC(O)CC2(C)C)C(C)(C)CC(O)C1 (some centres undefined) | inactive | 
3 | CN(c1ccc([N+](=O)[O-])cc1)c1cc2c(c3c1ccn3C)C1CCC2C1 (centres undefined) | inactive | 
4 | CCN(CC)c1ccc(/C=C/c2nccc3ccccc23)cc1 | active: 12.6 µM | 
5 | COC(=O)C(NC(=O)c1ccccc1C)(Nc1ncc(S(=O)(=O)c2ccc([N+](=O)[O-])cc2)s1)C(F)(F)F (centres undefined) | inconclusive [inhibitor, single point] | 
6 | S=C1NC2=C(CCCC2=C2SCCCS2)C(c2ccccc2)N1 (centres undefined) | inconclusive [inhibitor, single point] | 
7 | Cc1cccnc1NC(=O)c1cccc(S(=O)(=O)N2CCN(c3ccc(F)cc3)CC2)c1 | active: 16.4 µM | 
8 | COC(=O)c1c(C)[nH]c(C(=O)OCC(=O)NCC(C)C)c1C | inconclusive [inhibitor, single point] | 
9 | O=C1C2(CCC13COC(c1ccc(O)cc1)OC3)COC(c1ccc(O)cc1)OC2 (centres undefined) | inconclusive [inhibitor, partial curve] | 
10 | COc1ccc(NC(=O)Cc2ccc(C)c(C)c2)cc1S(=O)(=O)N1CCCCC1 | inconclusive [inhibitor, single point] | 
11 | CC(C)CC(C(=O)NC1CCCCC1)N(Cc1cccs1)C(=O)c1snc(C(N)=O)c1N (centres undefined) | inconclusive [inhibitor, single point] | 
12 | COc1ccc(/C=N/NC(=O)c2cccnc2)cc1CN1CCOCC1 | inactive | 
13 | CC(C)(C)OC(=O)CC[C@@H](C(=O)N1CCN(C(=O)OC(C)(C)C)CC1)n1cc(C(CO)NC(=O)OC(C)(C)C)nn1 (some centres undefined) | inactive | 
14 | O=C1NC[C@H](CCCCN2C[C@H](Cc3ccccc3)N(Cc3ccccc3)C(=O)C2=O)N(CC2CCCCC2)C1=O | inconclusive [inhibitor, partial curve, poor fit] | 
15 | Cc1c(Cl)cccc1NC(=O)CSc1nc(=O)n(Cc2ccco2)c2c1CCC2 | inconclusive [inhibitor, single point] | 
16 | CCOC(=O)N1CCN(C(=O)c2ccc3nc4ccc(Cl)cc4c(=O)n3c2)CC1 | inconclusive [inhibitor, single point] | 
17 | COCCn1c(SCc2nnc(-c3ccccc3)o2)nc2sc3c(c2c1=O)CCC3 | inconclusive [inhibitor, single point] | 
18 | CCOC(=O)C1C(=O)NC(SCC(=O)Nc2nccs2)=C(C#N)C1c1ccccc1OCC (centres undefined) | active: 13 µM | 
19 | CC(=O)Nc1ccc(S(=O)(=O)N2CCC(C(=O)N[C@@H](Cc3ccccc3)C(=O)O)CC2)cc1 | inconclusive [inhibitor, single point] | 
20 | CN(C)c1ccc(CNC(=O)C2CCN(Cc3cc4ccccc4n3Cc3ccccc3)CC2)cc1 | active: 13 µM | 
21 | CCCCC(=O)Nc1nnc(S(=O)(=O)N(C)Cc2ccccc2)s1 | inactive | 
22 | CSc1ccc(S(=O)(=O)NCC(=O)OCC(=O)NCc2ccco2)cc1[N+](=O)[O-] | inactive | 

Row | Compound | Potency | activity change, negative = growth inhibition
23 | CCn1c(C(=O)OC)cc2c1ccn2-c1ccc(F)cc1 | active: 13 µM | 
24 | CCOC(=O)c1ccc(-c2ccc(/C=N/NC(=O)CN(c3ccccc3Br)S(C)(=O)=O)o2)cc1 | inconclusive [inhibitor, single point] | 
25 | O=C(CC(=O)Nc1cccc(Cl)c1Cl)Nc1cccc(Cl)c1Cl |  | inconclusive: -33.8% [inhibitor]
26 | Cc1ccc(NC(=O)Cn2cccc2C2=NC(c3ccccc3)CO2)cc1C (centres undefined) | inconclusive [inhibitor, single point] | 
27 | CCOC(=O)COc1ccc(/C=C2\NC(=S)N(CC)C2=O)cc1 | inactive | 
28 | CCN(CC)C(=O)c1ccc(/C=C/c2c[nH]c3ccccc23)[n+](C)c1 |  | inconclusive: -36.1% [inhibitor]
29 | COc1cc(O)c(C(CCN2CCOCC2)c2ccc(N(C)C)cc2)c(OC)c1 (centres undefined) | inconclusive [inhibitor, single point] | 
30 | CCOc1ccc(N/C=C/C(=O)c2ccccc2)c([N+](=O)[O-])c1 | inconclusive [inhibitor, single point] | 
31 | O=C(Nc1cccc(F)c1)C1CCCN(S(=O)(=O)c2ccccc2)C1 (centres undefined) | inconclusive [inhibitor, single point] | 
32 | CC(C)c1ccc(OCC(=O)NN2C(=O)c3ccccc3C2=O)c(Br)c1 | inactive | 
33 | COc1cc(C(=O)OCC(C)=O)ccc1OCc1c(C)noc1C | inconclusive [inhibitor, single point] | 
34 | OC[C@@H]1CN(Cc2ccc(Cl)cc2)C[C@H](n2cnc3c(NC4CCCC4)ncnc32)O1 | inconclusive [inhibitor, single point] | 
35 | COc1ccc(NC(=O)COc2ccc(C)nc2[N+](=O)[O-])cc1S(N)(=O)=O | inconclusive [inhibitor, full curve, poor fit] | 
36 | Cc1ccc(S(=O)(=O)N2CCN(C(=O)C3CCCCC3)CC2)cc1 | inactive | 
37 | COc1ccc(C2=Nn3c(nnc3-c3ccccn3)SC2)cc1OC | inactive | 
38 | CCCCC1(C(=O)OC)NC(c2ccc(O)cc2)C2C(=O)N(c3ccccc3)C(=O)C21 (centres undefined) | inactive | 
39 | Clc1ccc[n+](CCCCC[n+]2cccc(Cl)c2)c1 | inconclusive [inhibitor, single point] | 
40 | CC1(C)CC(=O)C2=C(C1)OC1OC(=O)CC21C (centres undefined) | inactive | 
41 | Cc1ccc(NC(=O)CSc2nnc(-c3n[nH]c4ccccc34)n2-c2ccccc2)c(C)c1 | inconclusive [inhibitor, single point] | 
42 | CCOc1ccc(C2C(C(=O)c3ccc(C)o3)=C(O)C(=O)N2CCN2CCOCC2)cc1OC (centres undefined) | inactive | 
43 | Cc1cc(NS(=O)(=O)c2ccc(NC(=O)CCCOc3cccc(C)c3C)cc2)no1 | inactive | 
44 | Cc1ccc(C(=O)CNc2cccc([N+](=O)[O-])c2)cc1 | inactive | 

— PubChem BioAssay AID686978 (National Center for Advancing Translational Sciences (NCATS), 2013)
